Measured values: PubChem BioAssay AID1671193 (National Center for Advancing Translational Sciences (NCATS), 2021)
In all, about 150,000 compounds went through this assay and about 180 (0.12%) were called active. Inconclusive results, whose numbers are uncertain, are shown with a selection of clear calls. The call rests on the fitted dose curve; in most records, active means well fitted cell-killing curve with a large enough effect; inconclusive means small, poorly fitted or top-dose-only effect, or effect the other way; inactive means flat fitted curve, though single readings scatter. A potency beside an inconclusive call is a rough fit, not a confirmed value. Where a structure was tested more than once in an assay, its records may differ in their call.

experiment: GF-AFC viability counterscreen for inhibitors of alpha-synuclein gene (SNCA) expression; conditions: HEK-293-SNCA-luc viability, GF-AFC fluorescence, 24 h; activity change, negative = cytotoxicity: at 57.1 µM (top of the series) unless noted; further: nearly all actives have a fitted effect of over 30% in size;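 on activity change, negative = cytotoxicity: 0% = DMSO-treated cells and -100% = medium-only wells without cells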
Method in brief: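 HEK-293-SNCA-luc cells (1500/well) plated 24 h, then exposed 24 h to a dilution series; GF-AFC added 30 min at 37C, fluorescence 405/540 nm; normalised to medium-only and DMSO wells, Hill fit.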
Potency means the concentration at half of the fitted maximal effect; tags describe the fitted curve by direction and shape.

Row | SMILES | activity change, negative = cytotoxicity | Potency
1 | COc1c(C)cccc1C(=O)N1CCOC(c2ccc(Cl)c(Cl)c2)C1 (centres undefined) | inactive: -15.1% | 
2 | COc1cc(NC(=O)c2ccc(-c3ncn[nH]3)cc2)ccc1NC(=O)C(C)(C)C | inactive: -8.54% | 
3 | CCOC(=O)c1ccc(CN(Cc2ccccc2C)S(=O)(=O)c2ccc(F)c(C)c2)cc1 |  | inconclusive: 4.47 µM [rising, single point]
4 | CC1=C[C@@H](CN2CCN(c3ncccn3)CC2)[C@H](C(C)C)C[C@H]1Cc1nnc(Cc2c[nH]c3ccccc23)o1 |  | inconclusive: 22.4 µM [cytotoxic, partial curve, poor fit]
5 | Cc1cc(C)cc(-n2c(SCC(N)=O)nc3c([nH]c4ccccc43)c2=O)c1 |  | inconclusive: 20 µM [cytotoxic, partial curve, poor fit]
6 | Cc1ccc(OCc2ccc(-c3nc(C#N)c(NCc4ccccc4Cl)o3)o2)cc1 |  | inconclusive: 39.8 µM [cytotoxic, partial curve, poor fit]
7 | COc1ccc(NC(=O)N2CCCC(Cc3noc(-c4ccccc4)n3)C2)cc1 (centres undefined) | inactive: -21.5% | 
8 | CCCCc1cc(C[C@H]2CNCC[C@H]2CC(=O)Nc2nccs2)no1 | inactive: -14.1% [at 87.6 µM] | 
9 | COc1ccccc1Nc1nn2c(=O)c3ccc(C(=O)NCCC4=CCCCC4)cc3nc2s1 |  | inconclusive: 7.08 µM [cytotoxic, single point]
10 | COCC(=O)N1CC(C(=O)O)C2(CCOCC2)C1 (centres undefined) |  | inconclusive: 3.55 µM [rising, full curve, poor fit]
11 | Cc1cc2nc(CO[C@H]3CN(Cc4ccc(S(C)(=O)=O)cc4)C[C@H]3F)[nH]c2cc1C | inactive: 2.12% [at 87.6 µM] | 
12 | CCOC(=O)C(C)Oc1cccn2c(=O)c(-c3cc(C)n(-c4ccc(Cl)cc4)n3)c(C)nc12 (centres undefined) | inactive: 5.08% | 
13 | COc1ccc(C2Cn3nnc(C(=O)N4CCC(C(=O)Nc5cc(C)cc(C)c5)CC4)c3CO2)cc1 (centres undefined) | inactive: -1.84% | 
14 | COc1ccc(-c2cc(N3CCCC(NC(=O)c4cc5ccccc5[nH]4)C3)n[nH]2)cc1 (centres undefined) |  | inconclusive: 28.2 µM [cytotoxic, partial curve, poor fit]
15 | Cc1ncc(CN2CCCC2C(=O)Nc2ccc(-c3cccc(F)c3)cc2)n1C (centres undefined) | inactive: 3.44% | 
16 | CN(Cc1nccn1C)C(=O)c1csc2nc(-c3ccc(C(F)(F)F)cc3)cn12 | inactive: -2.84% | 
17 | Cc1cc(C)c(NC(=O)c2cc3c(=O)n4ccccc4nc3n2C)c(C)c1 |  | inconclusive: 8.91 µM [rising, partial curve]
18 | CC(C)c1ccc(S(=O)(=O)Nc2ccc3oc4c(c3c2)C(=O)CC(C)(C)C4)cc1 |  | inconclusive: 28.2 µM [rising, partial curve, poor fit]
19 | O=C(Cn1c(=O)oc2ccccc21)N1CCCC(Cc2noc(-c3ccccc3)n2)C1 (centres undefined) |  | inconclusive: 12.6 µM [cytotoxic, partial curve, poor fit]
20 | COc1ccc(-c2ccc3c(N)c(C(=O)Nc4cc(F)ccc4C)sc3n2)cc1 |  | inconclusive: 39.8 µM [rising, single point]
21 | Fc1ccc2nc(C3CCN(Cc4nc(COc5ccccc5)no4)CC3)[nH]c2c1 |  | inconclusive: 1 µM [rising, full curve, poor fit]
22 | CCOc1ccc(-c2cc3c(=O)n(CCNC(=O)c4cccc(C#N)c4)ccn3n2)cc1 | inactive: -0.91% | 

Row | SMILES | activity change, negative = cytotoxicity | Potency
23 | CN1CCOc2c(C(=O)NCc3cccnc3)cc(-c3ccccc3F)cc21 |  | inconclusive: 39.8 µM [cytotoxic, partial curve, poor fit]
24 | O=C(NC1CCCN(c2cc(-c3ccccc3)[nH]n2)C1)c1ccc2cc[nH]c2c1 (centres undefined) |  | inconclusive: 15.8 µM [cytotoxic, partial curve, poor fit]
25 | CCOCCN1C(=O)COC[C@@H]1[C@H](O)c1ccc(NC(=O)c2ccccc2OC)cc1 | inactive: 4.55% [at 87.6 µM] | 
26 | COc1ccc(-n2c(=O)c3c(n2Cc2ccccc2)CN(CCCc2ccccc2)CC3)cc1 |  | inconclusive: 22.4 µM [cytotoxic, partial curve, poor fit]
27 | Cc1cccc(OCC(=O)c2ccc3c(c2)N(CC(=O)N(C)Cc2ccccc2)C(=O)CO3)c1 |  | inconclusive: 22.4 µM [cytotoxic, partial curve, poor fit]
28 | COc1cc(C2c3c(oc4ccccc4c3=O)C(=O)N2c2nnc(C(C)C)s2)cc(OC)c1OC (centres undefined) | inactive: -6.75% | 
29 | Cc1noc(C)c1[S+](=O)([O-])N1CCC2(CC1)C(=O)NN=C2c1ccccn1 |  | inconclusive: 39.8 µM [cytotoxic, single point]
30 | CCc1ccccc1NC(=O)C1c2ccccc2C(=O)N(CCOC)C12CCCCC2 (centres undefined) |  | inconclusive: 39.8 µM [cytotoxic, single point]
31 | COCCn1c(=O)c(-c2ccc(Cl)cc2)nc2cnc(N3CCNCC3)nc21 |  | inconclusive: 15.8 µM [rising, partial curve]
32 | COc1ccc(-n2nc3c(N4CCCC(C(=O)NCCc5ccc(C)cc5)C4)nnc(C)c3c2C)cc1 (centres undefined) |  | inconclusive: 1.78 µM [cytotoxic, full curve, poor fit]
33 | CC1CCCCN1S(=O)(=O)c1ccc(N2CCCC2=O)cc1 (centres undefined) |  | inconclusive: 8.44 µM [cytotoxic, single point]
34 | CN1C(=O)COC[C@@H]1[C@H](O)c1ccc(NC(=O)c2ccc(C#N)cc2)cc1 | inactive: 2.31% [at 87.6 µM] | 
35 | Cc1ccncc1-c1c(C)nn2c1N(Cc1cccc(OC(F)(F)F)c1)CCC2 |  | inconclusive: 14.1 µM [cytotoxic, partial curve, poor fit]
36 | COc1cc2ccccc2cc1C(=O)Nc1ccc2oc(-c3cccc(Cl)c3Cl)nc2c1 |  | inconclusive: 14.1 µM [rising, partial curve, poor fit]
37 | CC(C)(C)OC(=O)N1CCC(c2c(C(=O)NCCN3CCC(Cc4ccccc4)CC3)cnn2-c2ccccc2)CC1 |  | inconclusive: 31.6 µM [cytotoxic, single point]
38 | Nc1nc(Nc2ccc(S(N)(=O)=O)cc2)nn1C(=O)c1c(F)cccc1F |  | inconclusive: 21.5 µM [cytotoxic, partial curve]
39 | COc1cccc(CN2CCN(c3nc4c(s3)c(C)nn4C)CC2=O)c1 |  | inconclusive: 12.6 µM [cytotoxic, partial curve]
40 | CO[C@@H](C)Cn1c(=O)n(C)c2cnc3ccc(-c4cncc(C(C)(C)O)c4)cc3c21 |  | inconclusive: 1.68 µM [cytotoxic, full curve, poor fit]
41 | CC1(C)[C@H](Cc2cc(COc3ccccc3)on2)C[C@@H]1NC(=O)Cc1ccccc1 | inactive: -29.7% [at 87.6 µM] | 
42 | CC(C)C[C@H](NC(=O)c1cc2ccccc2s1)C(=O)N1CCN(C(=O)[C@H](CO)NS(=O)(=O)c2ccc(Cl)cc2Cl)CC1 |  | inconclusive: 21.5 µM [cytotoxic, partial curve]
43 | COC(=O)CNC(=O)c1nc(-c2ccsc2)c2cnccn12 | inactive: 16.7% [at 87.6 µM] | 
44 | CN1C(=O)C(c2ccccc2)CC12CCN(C(=O)CN1CCCC1)CC2 (centres undefined) | inactive: 15.3% | 

Row | SMILES | activity change, negative = cytotoxicity | Potency
45 | Cc1cccc(C(=O)N2CCC(c3nc(C4CCOCC4)no3)C2)c1 (centres undefined) | inactive: -6.09% | 
46 | COC(=O)C1=COC(O[C@@H]2O[C@H](CO)[C@@H](O)[C@H](O)[C@H]2O)C2C(C)C(=O)CC12 (some centres undefined) |  | inconclusive: 5.85 µM [cytotoxic, single point]
47 | COc1ccc(-c2nc(-c3ccccc3)c(-c3ccc(O)cc3)[nH]2)cc1 |  | inconclusive: 22.4 µM [cytotoxic, single point]
48 | C#CCNC(=O)c1cc(-c2cccc(C(F)(F)F)c2)c2nncn2n1 |  | inconclusive: 12.6 µM [cytotoxic, partial curve, poor fit]
49 | Cc1ccc(C(=O)N2CCC3(CC2)CC(c2cccnc2)=NO3)cc1 |  | inconclusive: 39.8 µM [cytotoxic, single point]
50 | COCc1ncc(C)n1CC1CCN(C(=O)CCc2ccc(OC)cc2)CC1 | inactive: -3.3% | 
51 | CCOc1ccccc1CN1CCCC12Cc1ccccc1CNC2=O (centres undefined) |  | inconclusive: 6.31 µM [cytotoxic, full curve, poor fit]
52 | COCCn1c(=O)c(-c2ccc(F)c(F)c2)nc2cncnc21 |  | inconclusive: 1 µM [rising, full curve]
53 | O=C1COc2ccc(OCc3cccnc3)nc2CN1Cc1ccccc1F | inactive: -5.68% [at 87.6 µM] | 
54 | COc1cc(Cl)c(C)cc1NC(=O)CSc1ncc(S(=O)(=O)c2ccc(C(C)(C)C)cc2)c(=O)[nH]1 | inactive: 8.15% | 
55 | COc1cc(C(=O)Nc2ccc3oc(-c4ccccc4)nc3c2)cc(OC)c1OC |  | inconclusive: 39.8 µM [cytotoxic, single point]
56 | COC(=O)N1CCC2(CC1)CN(c1ccccc1)C2 |  | inconclusive: 39.8 µM [cytotoxic, single point]
57 | COc1ccc(-c2nc(SCC(=O)Nc3ccc4c(c3)OCO4)c(-c3ccc(OC)cc3)[nH]2)cc1 |  | inconclusive: 11.2 µM [cytotoxic, partial curve, poor fit]
58 | CC(C)NC(=O)N1CCCC1C(=O)N1CCCC(c2nc3ncccc3[nH]2)C1 (centres undefined) | inactive: 11.4% | 
59 | COc1ccc(OC)c(NC(=O)Cn2cccc2-c2nc(-c3ccc4c(c3)OCO4)no2)c1 |  | inconclusive: 6.31 µM [rising, single point]
60 | COc1ccc(CCNC(=O)c2ccc3nc(C)cn3c2)cc1 | inactive: 5.16% | 
61 | CCCc1nc(C)c2c(=O)[nH]c(-c3cc(S(=O)(=O)N4CCN(CC)CC4)ccc3OCC)nn12 |  | active: 27.1 µM
62 | OC[C@@H]1CNC[C@H]1C1CCN(Cc2ccc(Cl)c(F)c2)CC1 | inactive: 20.2% [at 12.5 µM] | 
63 | CC1(CCCCc2ccccc2)COc2ccc(C(=O)NCCN3CCOCC3)cc2N1 (centres undefined) | inactive: 3.67% [at 87.6 µM] | 
64 | O=C(N[C@@H]1CN(C(=O)Nc2cccc(C(F)(F)F)c2)CCC[C@H]1O)c1ccc(OCc2ccccc2)cc1 |  | inconclusive: 31.6 µM [cytotoxic, single point]
